Article PMC4564936, “The Complex Energy Landscape of the Protein IscU” (Biophysical Journal, 2015)

Biological target: the molecule itself
Assay: SAXS; purified protein dialysed extensively (>12 h), buffer conditions as used for the NMR studies with DTT as reductant; variable temperature; molecular mass by the Vc method; monomer to dimer

B1: IscU(P101A) (natural protein, E. coli, UniProt P0ACD4 1-128, looked up)
chain: MAYSEKVIDHYENPRNVGSFDNNDENVGSGMVGAPACGDVMKLQIKVNDEGIIEDARFKTYGCGSAIASSSLVTEWVKGKSLDEAQAIKNTDIAEELELPAVKIHCSILAEDAIKAAIADYKSKREAK
notes: IscU, E. coli, variant P101A; cloned in a pE-SUMO plasmid; also called P101A variant of IscU; source: E. coli BL21 RILP(DE3), purified (Ni-NTA, SUMO protease cleavage, IMAC flow-through, gel filtration)
  stoichiometry N: 2
